# Measurements published in PubChem BioAssay (NCI).
# A structure can be active in one record and inactive in another.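 Compound tested at a single concentration for 48 hours in 96-well plates; a percent growth value below 10 was scored as active.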 For part of its entries the source gives two or more results. The list is limited to them. An entry can have further records. The screen tested this drug many times, at its own concentration, as given; one value stands for one run. Signs of the kind (2×) stand for listed records that agree.
# Experiments:
# T-47D breast = experiment: NCI-60 one-dose screen, 48 h (100 = growth as untreated, 0 = no growth, -100 = all killed)
# BT-549 breast = experiment: as above; details: 0.25 µM
smiles,measurement,setting,value
COc1cccc2c1C(=O)c1c(O)c3c(c(O)c1C2=O)C[C@@](O)(C(=O)CO)C[C@@H]3OC1CC(N)C(O)C(C)O1 (stereo not given in full),growth,"T-47D breast; 0.25 µM, runs of 2018","inactive: 16.5, 18.7 (2×), 22.3, 11.2, 23.3, 22.4 (2×), 24.1, 23.8, 20.9, 18.9, 24.6 (2×), 33.4, 30.4, 42.7, 36 (2×), 21.4 (2×), 32.9, 35, 21.8 (2×), 20.8, 21, 25.8, 24.7, 17.5, 16.7, 23.7 (2×), 23.6, 23.2, 30, 24.5, 25.6, 24.2, 24, 15.2, 12.5, 21.2, 20.2, 22.2, 20.4, 12.3, 25.9, 26.9, 33.8, 31, 13.9, 18%"
same,growth,"T-47D breast; 0.25 µM, runs of 2019","inactive: 23.4, 15.2, 22.2, 17.5, 23.2, 26.9, 22.3, 22.4, 27.4, 15.9, 26.4, 17.9 (2×), 23.8 (2×), 26, 26.3, 25.1, 20.6, 13.4, 17.1 (2×), 26.1 (2×), 21.9, 20.4, 22.9, 38.6, 38.1, 19.9, 29, 21.7, 22, 19.7, 13.8, 12, 12.9, 15.5, 17.4, 24.1, 19.2, 25.4, 17.7, 19.3% and active: 8.56%"
same,growth,"T-47D breast; 0.25 µM, runs of 2020","inactive: 19.1, 26.5, 35.7, 42.5, 25.1, 21.1, 24.6, 24.1, 19.9, 23.1, 20.7, 20.9, 26.7, 25.2, 34.4, 30.5, 20.6, 26.6 (2×), 24.3, 26.8, 21.7, 24.7, 20.5%"
same,growth,"T-47D breast; 0.25 µM, runs of 2021","inactive: 32.5, 26.9, 25.8 (2×), 26.4, 30 (2×), 34.2, 26.1 (2×), 29.8, 34.6, 31.4, 22.3, 25.3, 21.3, 24.6, 26, 24.4 (2×), 19.1, 22.6 (2×), 23.8, 21.6, 26.6, 15.6 (2×), 20.3, 28.5, 25.4 (2×), 21, 20, 25.1, 23.1, 25.9, 35.5, 33.4, 32.9, 29, 19.6, 33.9, 25.2, 15.9, 33.3, 17.6, 27.4, 21.2%"
same,growth,"T-47D breast; 0.25 µM, runs of 2022","active: -3.42%, -1.4%, 6.55% and inactive: 28.7, 21.2, 10.9, 19.1, 31.1 (2×), 30.5, 27.4, 30.1, 25.8, 12.3, 39, 56.1, 42.5, 35.7, 61.6, 25.3, 22, 19.4, 24.1%"
same,growth,"T-47D breast; 25 µM, runs of 1993","active: -44.1, -59.8, -22.1 (2×), -19.1, -40.1, -23.8, 7.83, -30.7, -26.4, -14.2 (2×), -10.2, -23, -6.71, -27.1, -29.2, -25.7, 0.128, 0.211, -14.8 (2×), -27.6, -21.1, 1.53, -17.6, -6.61, 5.75, -13.1, -22.2, -12.5, -14.1, 1.38, -6.43, -21.4, -37.3, -16.7, -18.5, -24.7, -1.8% and inactive: 19.9%, 10.6%, 10.9%"
same,growth,"T-47D breast; 25 µM, runs of 1994","active: -31.3, -5.32, -25.7, -9.73, -8.67, -10.7, -14.1, 5.9, -12.5, -7.23, -12.8, -13.2, 1.86, -19, -30.3, -11.8, -9.21, -13.5, 2.85, -18.3, -20.4, -77.3, -6.01, -65.5, -9.46, -37.4, 4.42, -43.7, -4.89, -6.53, -24.1, -20.6% and inactive: 90.6%, 19.8%"
same,growth,"T-47D breast; 25 µM, runs of 1995","active: -17.9, -17.4, 0.942, -11.1, 0.0855, -14.3, -28, 3.43, -3.49, 4.36, -14.7, -6, -17, -0.978, -10.8, 3.85, -25.5, -31.7, -24, -40.1, -10.7, -23.1, -18.9, -19.9, -17.8, 1.58, -32.9, 1.7, 6.71, 7.57, -29.3, -25.1, -18.1, -17.1, -9.43, -6.34, 3.55, -12.3, -17.5, -11.8, -29.1, 1.67% and inactive: 22%"
same,growth,"T-47D breast; 25 µM, runs of 1996","active: -11.9, -13.2, -8.86, -15.5, -4.18, -20.1, -9.76, -27.2, 8.18, -9.49, -7.45, -19.1, 3.76, -40.7, -24.7, 4.29, -15.4, -30.8, -18.6, -2.2, -31.2, -20.3, 1.28, -23, -19.7, -16.4, -20.5, -21.1, -11.1, -39.6, -10.2, -16.8, -33.7, -28.6, -49.5, -19.3, -10.7, -25.3, -21.2, -13.3, -15.9, -0.172, -11.2, -38.5, -47.1% and inactive: 11.2%, 20.8%"
same,growth,"T-47D breast; 25 µM, runs of 1997","active: -32.7, -18.1, -27.4, -6.28, -27.5, -22.1, -9.25, -26, -18.8, -16.5, -0.781, -20.6, -30.4, -11.2, -13.8, -23, -8.85, -27.1, 3.89, -47.8, -17.1, -23.6, -2.67, -27.2, -14.1, -17.7, -22.2, -16.2, -12.7, -20.3, -3.35, -10.5, -10.6, -31.1, -4.46, -24.1, -27.3, -43.6, -24.9, -8.76% and inactive: 12.9%, 11.3%"
same,growth,"T-47D breast; 25 µM, runs of 1998","active: -34.9, -37, -23.4, -26.6, -13.6 (2×), -28.8, -6.68, -24.1, 1.04, -12.9, -22.4, -1.67, -12.4, -26.3, 8.47, -31.9, -48.7, 5.69, -1.6, -49.2, -37.4% and inactive: 15.1%"
same,growth,"T-47D breast; 25 µM, runs of 1999","active: -32.9, -2.48, -1.5, -21.6, -2.05, -47.1, -27.2, -51.6, -25, -71.3, -53.4, -14, -100, -26.8% and inactive: 19.8%"
same,growth,"T-47D breast; 25 µM, runs of 2000","active: -11.4%, -100%, 8.48%"
same,growth,BT-549 breast; runs of 2006,"inactive: 12.8%, 20.3%"
same,growth,BT-549 breast; runs of 2007,"inactive: 32.8, 47.9, 23.5, 18.4, 26, 31.9, 61.4, 64.4, 42.8, 29.8, 63.6, 35.5, 49.9, 42.7, 158, 61.8, 56.1, 63.2, 73.6, 76, 102, 73.5, 72.9, 86.7, 29, 79.8, 65.8, 65.7, 56, 44.8, 56.8, 38, 56.9, 45.7, 52.6, 44% and active: 0.447%, 0.0994%"
